Data as given in the supplement of paper PMC12217912.
The list shows a part of the results. Sequences were assembled here from the parent chain. Values near 0.05 are background.

B1: TEV protease; numbered along this chain (parent)
chain: MGESLFKGPRDYNPISSSICHLTNESDGHTTSLYGIGFGPFIITNKHLFRRNNGTLVVQSLHGVFKVKDTTTLQQHLVDGRDMIIIRMPKDFPPFPQKLKFREPQREERICLVTTNFQTKSMSSMVSDTSCTFPSGDGIFWKHWIQTKDGQCGSPLVSTRDGFIVGIHSASNFTNTNNYFTSVPKNFMELLTNQEAQQWVSGWRLNADSVLWGGHKVFMVKPEEPFQPVKEATQL

Variants of: B1
Experiment: raw area under fraction-flipped curve 0-4 h after induction (AUC4h, not background-subtracted), DNA-recorder readout of cleavage of the substrate (dimensionless); higher = more cleavage of the substrate by the protease variant
Conditions: temperature: 34 °C; time window: 0-4 h after rhamnose induction
Method: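 In vivo DNA recorder in E. coli TOP10(DE3) ΔrhaA at 34 °C. Each TEVp single-site mutant (parent TEVp 0) is paired with a single-site variant of the 7-mer TEVs (canonical ENLYFQ|S). The substrate sits between flexible linkers in a Bxb1-sfGFP-TEVs-SsrA fusion, so cleavage stabilises Bxb1 and speeds flipping of a recombination array, read by NGS. The value is the raw area under the fraction-flipped curve over 0-4 h after rhamnose induction (AUC4h), with ≥20 reads per time point. It is not background-subtracted; inactive controls average about 0.047.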
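Also: Bxb1 expression induced with 0.2% (w/v) L-rhamnose at OD600 near 0.5, cultures sampled hourly, flipped fraction per protease–substrate barcode pair counted by paired-end Illumina sequencing.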

Row | Variant | area with substrate EALYFQS | area with substrate ECLYFQS | area with substrate EDLYFQS | area with substrate EELYFQS | area with substrate EFLYFQS | area with substrate EHLYFQS | area with substrate EILYFQS | area with substrate EKLYFQS | area with substrate ELLYFQS | area with substrate EMLYFQS | area with substrate EPLYFQS | area with substrate EQLYFQS | area with substrate ERLYFQS | area with substrate ESLYFQS | area with substrate EVLYFQS | area with substrate EWLYFQS | area with substrate EGLYFQS | area with substrate EYLYFQS | area with substrate ETLYFQS
1 | P40M | 0.0978 | 0.0965 | 0.138 | 0.102 | 0.0843 | 0.087 | 0.0905 | 0.0895 | 0.0939 | 0.102 | 0.105 | 0.133 | 0.105 | 0.11 | 0.0957 | 0.106 |  |  | 
2 | P184K | 0.0879 | 0.0736 | 0.0835 |  | 0.0895 |  |  |  | 0.0392 |  | 0.0886 | 0.0647 |  | 0.0714 | 0.0534 | 0.0755 |  |  | 
3 | M88N | 0.0962 | 0.0795 |  | 0.121 |  | 0.0785 | 0.0736 | 0.0786 | 0.0763 | 0.0918 | 0.0833 | 0.113 | 0.0805 | 0.0983 | 0.0723 |  | 0.0828 |  | 
4 | V64A | 0.11 | 0.107 |  |  |  | 0.108 | 0.0781 | 0.121 |  | 0.102 |  | 0.148 | 0.0958 | 0.0904 |  | 0.115 |  | 0.0836 | 
5 | P184R | 0.0821 |  |  | 0.0578 |  | 0.0685 | 0.0565 |  |  | 0.117 |  | 0.0792 |  |  | 0.0314 |  |  |  | 
6 | V64I | 0.121 | 0.11 | 0.142 | 0.108 |  |  | 0.0649 |  |  | 0.0907 | 0.0962 | 0.161 |  | 0.11 |  |  |  |  | 0.136
7 | N24S | 0.0871 | 0.0895 |  | 0.0697 |  | 0.0787 |  | 0.0764 | 0.0673 | 0.0673 |  | 0.0967 |  | 0.0601 | 0.0787 |  |  | 0.0727 | 
8 | R81H | 0.0921 |  | 0.113 |  | 0.0945 | 0.106 | 0.108 |  | 0.07 |  | 0.118 | 0.123 | 0.0942 | 0.0863 | 0.0839 | 0.0862 | 0.0748 | 0.102 | 
9 | L5M | 0.153 |  |  | 0.18 | 0.167 |  | 0.115 |  | 0.119 | 0.179 | 0.161 | 0.159 | 0.14 | 0.131 | 0.113 | 0.121 | 0.144 |  | 
10 | S18T | 0.0989 |  | 0.0965 | 0.147 |  |  | 0.0605 | 0.134 | 0.0679 | 0.101 | 0.145 | 0.136 | 0.0947 | 0.0971 | 0.0839 | 0.112 |  |  | 
11 | S17G | 0.145 | 0.114 | 0.13 | 0.0952 | 0.126 | 0.12 | 0.076 | 0.0945 |  | 0.11 | 0.157 | 0.128 | 0.104 | 0.102 | 0.0926 | 0.0851 | 0.0791 | 0.118 | 0.13
12 | Q198F | 0.0996 | 0.0895 | 0.097 | 0.0764 | 0.0836 | 0.102 | 0.0839 | 0.0931 | 0.0777 | 0.121 | 0.184 | 0.105 | 0.0913 | 0.0836 | 0.0802 | 0.085 | 0.0798 | 0.0965 | 0.0914
13 | P184A | 0.101 | 0.0812 | 0.0971 | 0.0872 |  | 0.081 | 0.0881 | 0.0999 | 0.115 | 0.0923 | 0.0368 | 0.0962 | 0.106 | 0.0998 | 0.072 |  | 0.0863 |  | 0.0808
